Reference: the supplement of paper PMC6089552
Among all 3,200 compounds or so, about 300 (9.4%) showed activity. This is a selection; strong and weak results do not stand in their true shares.

Tested on: A673/TR/shEF
Test: cell viability (LOESS-normalised, relative to median of negative controls) (log2 ratio); higher = more viable cells (less compound effect), active = hit call of the paper (over 3 MAD below the median)
Details: treatment time: 72 h
Method in brief: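 A673/TR/shEF Ewing sarcoma cells (1,500 per well, 384-well plates) were grown with or without doxycycline to induce EWS-FLI1 shRNA knockdown, starting 24 h before compounds. Library compounds at two or more concentrations, with DMSO controls, were added for three days. Cell viability was read by CellTiter-Glo luminescence on an Envision reader, then LOESS-corrected per plate, divided by the median of negative controls and log2-transformed. Hits were wells at least three median absolute deviations from the median of all screened wells.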

[1] = 0.25 µM, library screen: screen1, EWS-FLI1 expression: high (no doxycycline)
[2] = 0.25 µM, library screen: screen1, EWS-FLI1 expression: low (doxycycline-induced shRNA knockdown)
[3] = 2.5 µM, library screen: screen1, EWS-FLI1 expression: high (no doxycycline)
[4] = 2.5 µM, library screen: screen1, EWS-FLI1 expression: low (doxycycline-induced shRNA knockdown)
[5] = 0.25 µM, library screen: screen2, EWS-FLI1 expression: high (no doxycycline)
[6] = 0.25 µM, library screen: screen2, EWS-FLI1 expression: low (doxycycline-induced shRNA knockdown)
[7] = 2.5 µM, library screen: screen2, EWS-FLI1 expression: high (no doxycycline)
[8] = 2.5 µM, library screen: screen2, EWS-FLI1 expression: low (doxycycline-induced shRNA knockdown)

Measured: cell viability (log2)

COc1ccc2c(c1O)-c1c(OC)c(OC)cc3c1[C@H](C2)N(C)CC3
inactive: [1] -0.01 | [2] -0.0109 | [3] 0.111 | [4] 0.131

C[N+]1(C)[C@H]2CC(OC(=O)C(CO)c3ccccc3)C[C@H]1[C@H]1O[C@H]12 (some centres not stated)
inactive: [5] 0.258 | [6] 0.0872 | [7] 0.133 | [8] -0.00973

C[C@@H]1CC[C@@]2(NC1)O[C@H]1C[C@H]3[C@@H]4CC=C5C[C@@H](O)CC[C@]5(C)[C@H]4CC[C@]3(C)[C@H]1[C@@H]2C
inactive: 0.025 µM, library screen: screen2, EWS-FLI1 expression: high (no doxycycline) 0.0804 | 0.025 µM, library screen: screen2, EWS-FLI1 expression: low (doxycycline-induced shRNA knockdown) 0.071 | [1] 0.101 | [2] 0.14 | [5] 0.194 | [6] 0.0802 | [3] 0.13 | [4] 0.0856 | [7] 0.106 | [8] 0.133 | 25 µM, library screen: screen2, EWS-FLI1 expression: high (no doxycycline) 0.0875 | 25 µM, library screen: screen2, EWS-FLI1 expression: low (doxycycline-induced shRNA knockdown) 0.0211

Cc1ccccc1CN1CCN(Cc2ccc(F)cc2)CC1
inactive: [1] 0.0915 | [2] 0.13 | [3] 0.113 | [4] 0.0962

COc1cc2c(cc1OC)[C@H]1C(=O)c3ccc4c(c3O[C@H]1CO2)C[C@@H](C(C)C)O4
active: [1] -1.56 | [2] -0.67 | [3] -2.2 | [4] -0.747

CCCN(CCC)C(=O)Cc1c(-c2ccc(Cl)cc2)nc2c(Cl)cc(Cl)cn12
inactive: [5] 0.223 | [6] 0.162 | [7] 0.087 | [8] 0.137

NNCc1cccc(O)c1
inactive: [1] 0.103 | [2] 0.0544 | [5] 0.129 | [6] 0.00623 | [3] 0.142 | [4] 0.142 | [7] 0.151 | [8] 0.0221

CC[C@@]1(O)C[C@H](OC2C[C@@H](N(C)C)C(O)C(C)O2)c2c(cc3c(c2O)C(=O)c2c(O)ccc(O)c2C3=O)[C@H]1C(=O)OC (some centres not stated)
inactive: [1] 0.0817 | [2] 0.158 | [4] 0.00788
active: [3] -0.221

C[C@@H]1C[C@H]2CC(=O)[C@H]3CCCN4CCC[C@H]2[C@]34C1
inactive: [1] 0.103 | [2] 0.0455 | [3] 0.108 | [4] 0.0845

CCCN(CCC)[C@@H]1CCc2c(F)ccc(O)c2C1
inactive: [5] 0.13 | [6] 0.0763 | [7] 0.181 | [8] 0.101

N[C@@H]1C[C@H]1c1ccccc1
inactive: [5] -0.0136 | [6] 0.0758 | [7] 0.095 | [8] 0.0498

CC1(C)C2CC(=O)[C@]3(C)C(CC[C@@]4(C)[C@H](c5ccoc5)OC(=O)C5OC543)[C@@]2(C)[C@@H](O)C[C@H]1O (some centres not stated)
inactive: [1] 0.13 | [2] 0.163 | [3] 0.0438 | [4] 0.227

C[C@@H]1O[C@@H](O[C@H]2CC[C@]3(C=O)[C@H]4CC[C@]5(C)[C@@H](C6=CC(=O)OC6)CC[C@]5(O)[C@@H]4CC[C@]3(O)C2)[C@H](O)[C@H](O)[C@H]1O
active: [3] -3.36 | [4] -3.89
inactive: [1] 0.0221 | [2] 0.0427

COc1cc(CC(C)N)c(OC)cc1I (configuration not stated)
inactive: [5] 0.14 | [6] 0.0726 | [7] 0.151 | [8] 0.083

CN[C@@H](C)[C@@H](O)c1ccccc1
inactive: [1] 0.118 | [2] 0.0568 | [3] 0.122 | [4] 0.201

O.O=C1OC2(c3cc(Br)c([O-])cc3Oc3c2cc(Br)c([O-])[c]3[Hg])c2ccccc21.[Na+].[Na+] (configuration not stated)
inactive: [1] 0.113 | [2] 0.0666 | [3] 0.139 | [4] 0.132

CCOP(=S)(OCC)SCSCC
inactive: [1] 0.102 | [2] -0.0178 | [3] 0.0726 | [4] 0.115

CCC(C)C(=O)O[C@@H]1C[C@@]2(C)[C@H](c3ccoc3)OC(=O)CC23OC2(C)OC14C1(C)[C@@H](CC(=O)OC)C5(C)CC1(O)C(O)([C@@H](OC(C)=O)C43O2)[C@H]5OC(=O)C1(C)OC1C (some centres not stated)
inactive: [1] 0.0892 | [2] 0.0664 | [3] 0.0941 | [4] 0.178

Cc1sc2ccccc2c1CC1=NCCN1
inactive: [5] 0.233 | [6] 0.099 | [7] 0.201 | [8] 0.0637

C[N+](C)(C)CCOC(=O)CBr
inactive: [5] 0.173 | [6] 0.097 | [7] 0.0892 | [8] 0.139
